The values below come from PubChem BioAssay AID1240 (Sanford-Burnham Center for Chemical Genomics, 2008).

Screen size: about 50,000 compounds; about 800 (1.6%) showed an effect of 50% or more. Some of the results follow.

The target in this assay is Bcl-2-like protein 10 (Homo sapiens) (UniProt Q9HD36). In words: TR3 peptide-Bcl-B binding displacers, biochemical primary FP assay, phenotype converters (AID 1240).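 Also: 0% = Bcl-B with tracer peptide and DMSO and 100% = tracer peptide lacking Bcl-B.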 To be noted: GST-Bcl-B / FITC-TR3 peptide fluorescence polarization; stronger effect = higher value; compound at 3.75 mg/L. (In fluorescence polarisation assays a small probe gives low polarisation when free and higher when bound to something large.)
UniProt Q9HD36, sequence (Q9HD36 whole entry, looked up): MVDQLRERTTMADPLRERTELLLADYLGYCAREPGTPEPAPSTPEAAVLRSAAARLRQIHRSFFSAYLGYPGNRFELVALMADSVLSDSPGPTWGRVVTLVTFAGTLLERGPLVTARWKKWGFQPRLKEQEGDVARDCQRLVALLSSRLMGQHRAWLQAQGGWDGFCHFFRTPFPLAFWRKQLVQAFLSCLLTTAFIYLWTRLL
In the case of `O=C1CC(NCc2ccc(Cl)cc2)C(=O)N1c1ccc(Br)cc1` (stereo unspecified), the displacement was -4.5%. For the compound `O=C1CC(c2ccccc2)CC(O)=C1C=Nc1ccc(Cl)cc1C(=O)c1ccccc1` (stereo unspecified), the displacement is -8.3%. With `N/C(=N\OC(=O)COc1ccc2ccccc2c1)c1cccc([N+](=O)[O-])c1`, the displacement amounted to 3.6%. Take `O=C(O)C1C2CCCC1C2c1ccccc1` (stereo unspecified): the displacement is -1.9%. With `O=C(Nc1ccc(F)cc1)c1cc2ccccc2oc1=O`, the displacement stood at 12.8%. With `O=C(CSCC(=O)Nc1ccccc1[N+](=O)[O-])Nc1ccc2ccccc2c1`, the displacement stood at 10.1%. Consider `CCc1nnc(NS(=O)(=O)c2ccc(NS(=O)(=O)c3ccc4ccccc4c3)cc2)s1`, for which the displacement is 5.8%. The figure for `C/C(=C/C(=O)c1ccc(Cl)cc1)Nc1cccc(O)c1` is 8.2%; for `O=C(CCN1C(=O)/C(=C/c2ccc(Cl)cc2)SC1=S)Nc1nccs1` it is 14.9%. For `CCN(CC)C1=NC(C(F)(F)F)(C(F)(F)F)N=C(OC(C)C)O1`, the displacement is -7.3%.

`CCOc1ccc(Nc2nc(-c3ccccn3)cs2)cc1`: the displacement is -13.9%.

For `O=C1C2=C(NC3=C(C(=O)c4ccccc43)C23C(=O)Nc2ccccc23)c2ccccc21`, the displacement came to 13%. As to `COc1cccc(OCCn2cc(/C=C3/SC(=S)NC3=O)c3ccccc32)c1`, the displacement was -15.1%.

`O=C(O)c1ccccc1NC1=C(Cl)C(=O)N(c2ccc(Br)cc2)C1=O`: the displacement came out at 16%. Turning to `C=CCn1c(=S)[nH]c2sc3c(c2c1=O)CCC(C)C3` (stereo unspecified), the displacement was determined as 13.2%. The figure for `Cc1cc2nc(Nc3nc(O)cc(=O)[nH]3)nc(C)c2cc1C` is -19.4%; for `Cc1sc(/N=C/c2c(O)ccc3ccccc23)c(C#N)c1C` it is 2.9%. The result for `COc1ccc(S(=O)(=O)N2CCN(Cc3ccccc3F)CC2)cc1` reads -10.9%. On to `COc1cc(/C=C2/C(=O)NN(c3ccc(Cl)cc3)C2=O)ccc1O`, for which the displacement came out at 0.9%. In the case of `O=C1c2ccccc2C(=O)N1CSc1nc(-c2ccccc2)cc(-c2ccccc2)n1`, the displacement was -1.9%. Regarding `Cc1ccccc1C(=O)NN1C(=O)/C(=C/c2cccc(O)c2)SC1=S`, the displacement was -16.7%.

For `CN(C)CCC(=O)c1cccs1`, the displacement is 4.3%.

Consider `O=C(NN1C(=O)C2C3C=CC(C4CC34)C2C1=O)c1ccc(Cl)cc1Cl` (stereo unspecified), for which the displacement is 1.6%. The figure for `O=C(COc1ccccc1[N+](=O)[O-])Nc1ccc(I)cc1Cl` is -0.1%. In the case of `CN(C)c1ccc(/C=N/n2cnnc2SCc2ccccc2)cc1`, the displacement stood at 2.2%. Regarding `O=C(CC1Sc2ccc(C(F)(F)F)cc2NC1=O)Nc1ccc([N+](=O)[O-])cc1` (stereo unspecified), the displacement is 0.4%. On to `Cc1ccc(N2C(=O)NC(=O)/C(=C\c3ccc(N4CCOCC4)o3)C2=O)cc1`, for which the displacement was -5.9%. As for `CCOc1ccc(NC(=O)/C(=C\c2ccccc2Cl)NC(=O)c2ccc(C)cc2)cc1`, the displacement was -1.2%. The result for `COc1ccccc1N(CC(=O)NCCOc1ccc(Cl)cc1)S(=O)(=O)c1ccccc1` reads -6.4%; that for `O=C(COc1ccc(Br)cc1)NNC(=O)c1ccco1`, 15.3%; that for `COc1ccccc1OCC(=O)Nc1ccc(C(=O)O)cc1`, 1%. On to `C/C(=N\N=C1\NC(=O)C(CC(=O)Nc2ccccc2)S1)C(C)C` (stereo unspecified), for which the displacement is -26.8%. For `CC(C)C(=O)N1c2ccccc2NC2=C(C(=O)CC(C)(C)C2)C1c1cccnc1` (stereo unspecified), the displacement was -4.7%.

For `CC(=O)c1cccc(NC(=O)c2cccc(OCc3ccccc3)c2)c1`, the displacement is -9.5%.

With `COc1ccc(S(=O)(=O)N(CC(=O)NCc2ccc(Cl)cc2)Cc2ccccc2)cc1`, the displacement came out at 7.8%. The result for `CC1(C)CC(=O)C=C(NNC(=O)Cc2ccccc2)C1` reads 5.8%.

Regarding `O=C(Oc1ccc2oc(=O)sc2c1)c1ccccc1Br`, the displacement was determined as 7.5%. Turning to `O=C(c1cc(I)ccc1Cl)N1CCN(c2ccc([N+](=O)[O-])cc2)CC1`, the displacement was found to be 16.6%. For the compound `COc1cc(/C=C2/C(=O)NC(=O)N(c3cccc(C)c3)C2=O)ccc1OCC(=O)O`, the displacement is -14.8%. On to `CC(C)(C)NC(=O)c1ccccc1N(Cc1ccccc1)S(=O)(=O)c1ccccc1`, for which the displacement is -1.7%.

Consider `CNC(=O)C1CC(=O)N(c2ccc(F)cc2)C1` (stereo unspecified), for which the displacement amounted to 3.4%. Regarding `Cc1cc(Br)cc(C)c1NC(=O)c1cccnc1`, the displacement was found to be 2.1%. Regarding `COc1ccc(NC(=O)Nc2nnc(-c3ccc(F)cc3)s2)cc1`, the displacement is 3.4%.

With `CC(C)OC(=O)c1ccccc1OC(=O)c1sc2ccccc2c1Cl`, the displacement was -13.2%. In the case of `CCOC(=O)C(=Cc1cc(OC)c(O)c([N+](=O)[O-])c1)C(=O)OCC`, the displacement is 14.2%. In the case of `Cc1ccc(OCC(=O)Nc2cccc(-c3nc4ncccc4o3)c2)cc1C`, the displacement was -5.9%. For `CCOC(=O)c1cc(-c2ccccc2)oc1CN1CCOCC1`, the displacement was found to be 14.7%. As for `COc1cc(OC)cc(C(=O)Nc2cccc(C(C)=O)c2)c1`, the displacement is -5.3%.

Consider `CCc1ccccc1NC(=O)c1ccncc1`, for which the displacement is -2.1%. On to `CC(=O)Nc1cc(-c2ccc(C)cc2)nn1Cc1ccccc1`, for which the displacement is 1.7%.

On to `O=C(c1cccc(F)c1)N1CCN(Cc2cccc(Oc3ccccc3)c2)CC1`, for which the displacement was -8.1%. As to `COc1ccc(C(=O)OCCNC(=O)c2ccc[n+](C)c2)cc1`, the displacement was -16%.

With `O=c1/c(=C\c2ccccc2OCc2cccc3ccccc23)sc2nc3ccccc3n12`, the displacement is 104%.

Regarding `Cc1ccccc1OCC(=O)Nc1ccc(I)cc1`, the displacement is -1.7%. As to `O=c1[nH]c(/C=C/c2cc([N+](=O)[O-])ccc2O)c([N+](=O)[O-])c(=O)[nH]1`, the displacement was found to be 9.1%. For the compound `CC1=NNC(=O)C1CC(=O)N/N=C/c1ccccc1` (stereo unspecified), the displacement was -8.1%. Turning to `O=C(c1ccc(F)cc1)N1CCN(CCCc2ccccc2)CC1`, the displacement is 10%. For `O=S(=O)(c1ccccc1)N1CCN(C2CCC(c3ccccc3)CC2)CC1` (stereo unspecified), the displacement came out at 5.6%. `O=C(CC1S/C(=N\N=C\c2ccccc2)NC1=O)Nc1ccccc1F` (stereo unspecified): the displacement was determined as 8.3%. With `COc1cccc(C=C2C(=O)NC(=S)NC2=O)c1OC`, the displacement amounted to 1.4%. The result for `COc1cc(/C=N/N2C(=O)C3C4C=CC(C4)C3C2=O)cc(I)c1OC` (stereo unspecified) reads 8.9%; that for `Cc1ncc(-c2ccc(Br)cc2)cn1`, -4%.

Turning to `CCOc1ccccc1NC(=O)c1ccc(N(C)C)cc1`, the displacement amounted to 14.9%.

With `COc1ccc(OC)c(N=Cc2c(O)n(-c3ccccc3Cl)c(=O)[nH]c2=O)c1`, the displacement amounted to 98.7%. For `CC(=O)c1cccc(N2C(=O)C3C4C=CC(C5CC45)C3C2=O)c1` (stereo unspecified), the displacement was determined as 8.9%.

Take `CCOC(=O)c1[nH]c(=O)c2ccccc2c1O`: the displacement was -12.2%. On to `COc1ccc(CN2CCN(Cc3ccncc3)CC2)c(OC)c1`, for which the displacement is -16.7%. Consider `CCCOc1ccc(-c2ccc(-c3noc(CC)n3)cc2)cc1`, for which the displacement is -10.4%. Consider `CCOc1ccccc1/C=C1\C(=O)N(CCOC)C(C)=C1C(=O)OC`, for which the displacement is -1.3%. With `CCOc1ccccc1C(=O)Nc1sc2c(c1C#N)CCCC2`, the displacement was -4.6%. With `COc1ccc2c(c1)c(/C=C/c1nc3ccccc3c(=O)n1-c1ccccc1OC)c(C)n2C`, the displacement is -1%.
